# From the supplement of paper PMC8728848
# This is one part of the list.
# B1: B725 (Bifidobacterium sp) (protein)
# chain: MNNTTRAVIATAAIGALLIPLAGCGNTTTSSGKTELTVWSWDASIDRAAKSFMKANPDITVKVSNVGSTEETYTALNNAAQAGSGLPDVTLIEYLAIPQFVHSDTLMDLSKVYNTAKLKDTFTPGTWNSVNINGGLYAMPADSGPMAYFYDKDVFDKAGISEPPTTWDEFYEDAKKIRATGSYITSDSGDAGLFNAMMWAMGGHAYKLNDDKLTINIAKDKGAQRFMDLWQKMRDEDLIDVHTKTWTDDWMKSLGDGSIASLISGAWMANNLLQGVPQATGKFRVALLPTIDGTPINGEYGGSGLAITKKIPDGKLDAAKKFVEYVTTNDEGIDARVSNGSFPATTKTLNQKDFLAKTTLRNTDGSDNEFFGGQKYNEIFSQAAKDVTGKWEFLPFEPYARSVYNDNMGSFFAGKTSFRTAADNWQKALKDYAKDQGFTVQ
# Legend:
# Assay in all cases: glycan array binding signal (z-score within array); higher = stronger binding
# Details in all cases: glycan notation: IUPAC condensed, linker removed
# [1] = biological target: Neu5Ac(a2-3)Gal(b1-3)GlcNAc(b1-2)Man
# Summary of the method: (§1)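 The binding signal is a Z-score computed within each array. Data were drawn from 3228 arrays in the Consortium for Functional Glycomics database, restricted to those with a known protein sequence. Scores were averaged over arrays of the same protein sequence at different concentrations or buffers, and over linkers, and negative values can be taken as non-binding.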
# [2] = biological target: Neu5Ac(a2-3)Gal(b1-3)GlcNAc(b1-2)Man(a1-3)[GlcNAc(b1-4)][Neu5Ac(a2-3)Gal(b1-3)GlcNAc(b1-2)Man(a1-6)]Man(b1-4)GlcNAc(b1-4)GlcNAc
# Summary of the method: as §1
# [3] = biological target: Neu5Ac(a2-3)Gal(b1-3)GlcNAc(b1-2)Man(a1-3)[Neu5Ac(a2-3)Gal(b1-3)GlcNAc(b1-2)Man(a1-6)]Man(b1-4)GlcNAc(b1-4)GlcNAc
# Summary of the method: as §1
# [4] = biological target: Neu5Ac(a2-3)Gal(b1-3)GlcNAc(b1-2)[Neu5Ac(a2-3)Gal(b1-3)GlcNAc(b1-4)]Man(a1-6)[Neu5Ac(a2-3)Gal(b1-3)GlcNAc(b1-2)Man(a1-3)]Man(b1-4)GlcNAc(b1-4)GlcNAc
# Summary of the method: as §1
# [5] = biological target: Neu5Ac(a2-3)Gal(b1-3)GlcNAc(b1-3)Gal(b1-3)GlcNAc
# Summary of the method: as §1
# [6] = biological target: Neu5Ac(a2-3)Gal(b1-3)GlcNAc(b1-3)Gal(b1-4)GlcNAc
# Summary of the method: as §1
# [7] = biological target: Neu5Ac(a2-3)Gal(b1-3)GlcNAc(b1-3)GalNAc
# Summary of the method: as §1
# [8] = biological target: Neu5Ac(a2-3)Gal(b1-3)GlcNAc(b1-6)GalNAc
# Summary of the method: as §1
# [9] = biological target: Neu5Ac(a2-3)Gal(b1-3)GlcNAc6S
# Summary of the method: as §1
# [10] = biological target: Neu5Ac(a2-3)Gal(b1-3)[Fuc(a1-4)]GlcNAc
# Summary of the method: as §1
# [11] = biological target: Neu5Ac(a2-3)Gal(b1-3)[Fuc(a1-4)]GlcNAc(b1-3)Gal(b1-3)[Fuc(a1-4)]GlcNAc
# Summary of the method: as §1
# [12] = biological target: Neu5Ac(a2-3)Gal(b1-3)[Fuc(a1-4)]GlcNAc(b1-3)Gal(b1-4)[Fuc(a1-3)]GlcNAc
# Summary of the method: as §1
# [13] = biological target: Neu5Ac(a2-3)Gal(b1-3)[GlcNAc(b1-6)]GalNAc
# Summary of the method: as §1
# [14] = biological target: Neu5Ac(a2-3)Gal(b1-3)[Neu5Ac(a2-6)]GalNAc
# Summary of the method: as §1
# [15] = biological target: Neu5Ac(a2-3)Gal(b1-3)[Neu5Ac(a2-6)]GlcNAc(b1-3)[Fuc(a1-3)[Gal(b1-4)]GlcNAc(b1-6)]Gal(b1-4)Glc
# Summary of the method: as §1
# [16] = biological target: Neu5Ac(a2-3)Gal(b1-3)]Neu5Ac(a2-3)Gal(b1-4)]GlcNAc
# Summary of the method: as §1
# [17] = biological target: Neu5Ac(a2-3)Gal(b1-4)Glc
# Summary of the method: as §1
# [18] = biological target: Neu5Ac(a2-3)Gal(b1-4)GlcNAc
# Summary of the method: as §1
# [19] = biological target: Neu5Ac(a2-3)Gal(b1-4)GlcNAc(b1-2)Man
# Summary of the method: as §1
# [20] = biological target: Neu5Ac(a2-3)Gal(b1-4)GlcNAc(b1-2)Man(a1-3)[GlcNAc(b1-4)][Neu5Ac(a2-3)Gal(b1-4)GlcNAc(b1-2)Man(a1-6)]Man(b1-4)GlcNAc(b1-4)GlcNAc
# Summary of the method: as §1
# [21] = biological target: Neu5Ac(a2-3)Gal(b1-4)GlcNAc(b1-2)Man(a1-3)[Neu5Ac(a2-3)Gal(b1-4)GlcNAc(b1-2)Man(a1-6)]Man(b1-4)GlcNAc(b1-4)GlcNAc
# Summary of the method: as §1
# [22] = biological target: Neu5Ac(a2-3)Gal(b1-4)GlcNAc(b1-2)Man(a1-3)[Neu5Ac(a2-3)Gal(b1-4)GlcNAc(b1-2)Man(a1-6)]Man(b1-4)GlcNAc(b1-4)[Fuc(a1-6)]GlcNAc
# Summary of the method: as §1
# [23] = biological target: Neu5Ac(a2-3)Gal(b1-4)GlcNAc(b1-2)Man(a1-3)[Neu5Ac(a2-6)Gal(b1-4)GlcNAc(b1-2)Man(a1-6)]Man(b1-4)GlcNAc(b1-4)GlcNAc
# Summary of the method: as §1
# [24] = biological target: Neu5Ac(a2-3)Gal(b1-4)GlcNAc(b1-2)[Neu5Ac(a2-3)Gal(b1-4)GlcNAc(b1-4)]Man(a1-3)[GlcNAc(b1-4)][Neu5Ac(a2-3)Gal(b1-4)GlcNAc(b1-2)[Neu5Ac(a2-3)Gal(b1-4)GlcNAc(b1-6)]Man(a1-6)]Man(b1-4)GlcNAc(b1-4)GlcNAc
# Summary of the method: as §1
# [25] = biological target: Neu5Ac(a2-3)Gal(b1-4)GlcNAc(b1-2)[Neu5Ac(a2-3)Gal(b1-4)GlcNAc(b1-4)]Man(a1-3)[GlcNAc(b1-4)][Neu5Ac(a2-3)Gal(b1-4)GlcNAc(b1-4)Man(a1-6)]Man(b1-4)GlcNAc(b1-4)GlcNAc
# Summary of the method: as §1
# [26] = biological target: Neu5Ac(a2-3)Gal(b1-4)GlcNAc(b1-2)[Neu5Ac(a2-3)Gal(b1-4)GlcNAc(b1-6)]Man(a1-6)[Neu5Ac(a2-3)Gal(b1-4)GlcNAc(b1-2)Man(a1-3)][GlcNAc(b1-4)]Man(b1-4)GlcNAc(b1-4)GlcNAc
# Summary of the method: as §1
# [27] = biological target: Neu5Ac(a2-3)Gal(b1-4)GlcNAc(b1-3)Gal
# Summary of the method: as §1
# [28] = biological target: Neu5Ac(a2-3)Gal(b1-4)GlcNAc(b1-3)Gal(b1-3)GlcNAc
# Summary of the method: as §1
# [29] = biological target: Neu5Ac(a2-3)Gal(b1-4)GlcNAc(b1-3)Gal(b1-4)GlcNAc
# Summary of the method: as §1
# [30] = biological target: Neu5Ac(a2-3)Gal(b1-4)GlcNAc(b1-3)Gal(b1-4)GlcNAc(b1-2)Man(a1-3)[Neu5Ac(a2-3)Gal(b1-4)GlcNAc(b1-3)Gal(b1-4)GlcNAc(b1-2)Man(a1-6)]Man(b1-4)GlcNAc(b1-4)GlcNAc
# Summary of the method: as §1
# [31] = biological target: Neu5Ac(a2-3)Gal(b1-4)GlcNAc(b1-3)Gal(b1-4)GlcNAc(b1-3)Gal(b1-4)GlcNAc
# Summary of the method: as §1
# [32] = biological target: Neu5Ac(a2-3)Gal(b1-4)GlcNAc(b1-3)Gal(b1-4)GlcNAc(b1-3)Gal(b1-4)GlcNAc(b1-2)Man(a1-3)[Neu5Ac(a2-3)Gal(b1-4)GlcNAc(b1-3)Gal(b1-4)GlcNAc(b1-3)Gal(b1-4)GlcNAc(b1-2)Man(a1-6)]GalNAc
# Summary of the method: as §1
# [33] = biological target: Neu5Ac(a2-3)Gal(b1-4)GlcNAc(b1-3)Gal(b1-4)GlcNAc(b1-3)GalNAc
# Summary of the method: as §1
# [34] = biological target: Neu5Ac(a2-3)Gal(b1-4)GlcNAc(b1-3)Gal(b1-4)GlcNAc(b1-3)[Neu5Ac(a2-3)Gal(b1-4)GlcNAc(b1-3)Gal(b1-4)GlcNAc(b1-6)]GalNAc
# Summary of the method: as §1
# [35] = biological target: Neu5Ac(a2-3)Gal(b1-4)GlcNAc(b1-3)Gal(b1-4)GlcNAc(b1-6)[Gal(b1-3)]GalNAc
# Summary of the method: as §1
# [36] = biological target: Neu5Ac(a2-3)Gal(b1-4)GlcNAc(b1-3)Gal(b1-4)[Fuc(a1-3)]GlcNAc
# Summary of the method: as §1
# [37] = biological target: Neu5Ac(a2-3)Gal(b1-4)GlcNAc(b1-3)GalNAc
# Summary of the method: as §1
# [38] = biological target: Neu5Ac(a2-3)Gal(b1-4)GlcNAc(b1-3)[Neu5Ac(a2-3)Gal(b1-4)GlcNAc(b1-6)]GalNAc
# Summary of the method: as §1
binder,measurement,setting,value
B1,glycan array binding signal (z-score),[1],-0.219
same,glycan array binding signal (z-score),[2],-0.204
same,glycan array binding signal (z-score),[3],-0.156
same,glycan array binding signal (z-score),[4],-0.201
same,glycan array binding signal (z-score),[5],-0.231
same,glycan array binding signal (z-score),[6],-0.229
same,glycan array binding signal (z-score),[7],-0.225
same,glycan array binding signal (z-score),[8],-0.206
same,glycan array binding signal (z-score),[9],-0.226
same,glycan array binding signal (z-score),[10],-0.209
same,glycan array binding signal (z-score),[11],-0.218
same,glycan array binding signal (z-score),[12],-0.18
same,glycan array binding signal (z-score),[13],-0.221
same,glycan array binding signal (z-score),[14],-0.218
same,glycan array binding signal (z-score),[15],-0.226
same,glycan array binding signal (z-score),[16],-0.215
same,glycan array binding signal (z-score),[17],-0.228
same,glycan array binding signal (z-score),[18],-0.223
same,glycan array binding signal (z-score),[19],-0.207
same,glycan array binding signal (z-score),[20],-0.218
same,glycan array binding signal (z-score),[21],-0.239
same,glycan array binding signal (z-score),[22],-0.203
same,glycan array binding signal (z-score),[23],-0.239
same,glycan array binding signal (z-score),[24],-0.223
same,glycan array binding signal (z-score),[25],-0.218
same,glycan array binding signal (z-score),[26],-0.231
same,glycan array binding signal (z-score),[27],-0.226
same,glycan array binding signal (z-score),[28],-0.221
same,glycan array binding signal (z-score),[29],-0.227
same,glycan array binding signal (z-score),[30],0.044
same,glycan array binding signal (z-score),[31],0.601
same,glycan array binding signal (z-score),[32],-0.042
same,glycan array binding signal (z-score),[33],-0.193
same,glycan array binding signal (z-score),[34],-0.054
same,glycan array binding signal (z-score),[35],-0.203
same,glycan array binding signal (z-score),[36],-0.21
same,glycan array binding signal (z-score),[37],-0.207
same,glycan array binding signal (z-score),[38],-0.216
